# Data published in PubChem BioAssay AID488969 (Vanderbilt High Throughput Screening Facility, 2010).
# Over roughly 110,000 compounds, “z-score” has its median near -0.1; the highest 2% begin near 2. Some of the results follow. The source made the active and inactive calls.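 Rule for the calls: active = z-score in the third read window above 3 or below -3; inactive = the rest.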
# Target: Metabotropic glutamate receptor 8 (Rattus norvegicus) (UniProt P70579)
# Test: rat mGluR8 modulators via GIRK flux, primary screen, cell-based, thallium flux, HTS (AID 488969)
# Settings: HEK293 rat mGluR8, GIRK (G protein-gated inwardly rectifying potassium channel) thallium flux, FluoZin2; at 10 µM; stronger effect = higher value; submaximal glutamate (EC20) added with thallium
# Sequence of UniProt P70579 (P70579 whole entry, looked up): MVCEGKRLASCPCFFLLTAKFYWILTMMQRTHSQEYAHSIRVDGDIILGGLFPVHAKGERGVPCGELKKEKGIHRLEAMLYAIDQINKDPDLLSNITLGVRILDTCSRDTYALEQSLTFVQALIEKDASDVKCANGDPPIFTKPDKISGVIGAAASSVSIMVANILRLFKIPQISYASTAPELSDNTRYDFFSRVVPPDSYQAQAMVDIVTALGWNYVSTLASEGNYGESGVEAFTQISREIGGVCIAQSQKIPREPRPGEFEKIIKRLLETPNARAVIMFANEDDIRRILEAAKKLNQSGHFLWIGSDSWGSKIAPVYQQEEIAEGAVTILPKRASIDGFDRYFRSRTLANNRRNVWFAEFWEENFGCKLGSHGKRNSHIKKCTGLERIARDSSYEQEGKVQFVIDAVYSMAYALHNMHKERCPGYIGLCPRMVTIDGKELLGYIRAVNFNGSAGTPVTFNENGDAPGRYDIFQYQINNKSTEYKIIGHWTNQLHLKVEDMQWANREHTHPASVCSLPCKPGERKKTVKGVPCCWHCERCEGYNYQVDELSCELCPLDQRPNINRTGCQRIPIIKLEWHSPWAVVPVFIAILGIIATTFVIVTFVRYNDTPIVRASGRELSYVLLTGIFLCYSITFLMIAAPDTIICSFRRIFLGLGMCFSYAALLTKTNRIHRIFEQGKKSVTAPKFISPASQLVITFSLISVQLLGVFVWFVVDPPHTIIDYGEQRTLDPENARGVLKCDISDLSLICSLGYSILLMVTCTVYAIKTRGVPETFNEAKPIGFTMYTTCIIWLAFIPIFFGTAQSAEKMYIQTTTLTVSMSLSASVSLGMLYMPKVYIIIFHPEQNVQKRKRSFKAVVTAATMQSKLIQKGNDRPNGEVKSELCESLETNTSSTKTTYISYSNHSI
row,Structure (SMILES),z-score
1,O=[N+]([O-])c1ccc(OCCCCN2CCCCC2)cc1,0.208
2,S=c1[nH]nc(Cc2cccc3ccccc23)o1,-0.141
3,COc1ccc(OC)c(C(=O)c2coc3ccc(OCC(=O)O)cc23)c1,-0.618
4,Cc1cc(C(=O)OCC(=O)c2cccc([N+](=O)[O-])c2)c2cccc(C)c2n1,0.0809
5,Cc1nc(CNS(=O)(=O)c2ccc(Oc3ccccc3)cc2)cs1,0.404
6,CCOc1cc(/C=N\NC(=O)Cn2nc([N+](=O)[O-])cc2C)ccc1OCc1cccc2ccccc12,-0.0599
7,Cc1ccc(Nc2nc(N)nc(CSc3nc4ccccc4s3)n2)cc1,0.228
8,Cc1ccc(C(=O)N/N=C\c2ccc[nH]2)cc1[N+](=O)[O-],-0.179
9,CSc1ccc(S(=O)(=O)Nc2ccc(S(=O)(=O)Nc3ccc(C)cc3)cc2)cc1,-0.353
10,CCOC(=O)C1=NN(c2cccc(Cl)c2)C2=NC(C)=C(C(=O)OC)C(c3cccs3)N12 (centres undefined),1.71
11,C/C(=N\NC(=O)c1ccc(CSc2nncn2C)cc1)c1ccc(C#N)cc1,-0.353
12,Cc1c(S(=O)(=O)N2CCN(C(c3ccccc3)c3ccccc3)CC2)c(=O)n(C)c(=O)n1C,-0.324
13,CCCc1nc2ccccc2c(C(=O)OCC(=O)c2ccc3c(c2)NC(=O)CO3)c1CC,-0.0389
14,COc1ccc(OC)c(N(CC(=O)Nc2ccc3c(c2)OCO3)S(=O)(=O)c2ccccc2)c1,-0.348
15,CCSc1nnc(NC(=O)CSc2nnc(CNC(=O)c3cc(OC)c(OC)c(OC)c3)o2)s1,0.188
16,Cc1cc(C)cc(NC(=O)CSc2ccc(-c3cccs3)nn2)c1,-0.0502
17,CC1CCN(CCCn2c(=S)[nH]c3ccccc3c2=O)CC1,0.0115
18,CS(=O)(=O)N(CCc1ccccc1)CC(=O)N1CCN(c2ccc(F)cc2)CC1,0.072
19,COc1ccc(/C=C2/S/C(=N/N=C3\CC4CCC3(C)C4(C)C)NC2=O)cc1 (centres undefined),-0.651
20,COC1=C(Nc2ccccc2)C(=O)c2ccccc2C1=O,-0.28
21,COC(=O)c1ccc(OC)c(CSc2nnc(COc3ccccc3)o2)c1,-0.573
22,CCOC(=O)C1(C)/C(=N/Nc2ccc(Cl)cc2)C(=O)C(=O)N1c1ccccc1 (centres undefined),-0.0534

row,Structure (SMILES),z-score
1,O=C(c1ccco1)N1CCN(C(c2ccccc2Cl)c2nnnn2CC2CCCO2)CC1 (centres undefined),0.248
2,COc1ccccc1CC(=O)Nc1ccc([N+](=O)[O-])cc1OC,-0.407
3,O=C(NCCN1CCN(C(=O)c2cccs2)CC1)C(=O)Nc1ccc(Br)cc1,-0.194
4,Cc1nn(CC(=O)N/N=C/c2ccc3c(c2)OCO3)c(C)c1Br,-0.368
5,Cc1ccc(CNC(=O)CO/N=C/c2ccc(C(C)(C)C)cc2)cc1,0.00701
6,COC(=O)CCN(C(=O)c1cc(OC)c(OC)c(OC)c1)c1ccccn1,-0.238
7,CC1(C)C(c2ccccc2)=[N+]([O-])CN1O,0.809
8,COc1ccc(Oc2cc(C)c3cccc(C)c3n2)cc1,-0.0751
9,Cc1ccc(N(CCC#N)C(=O)CCl)cc1C,-0.335
10,CC(=O)/C=C(\C)Nc1ccc(-c2cnc(-c3ccccc3)o2)cc1,0.0863
11,Cc1cc(C)n2nc(SCc3cc(=O)oc4cc(O)ccc34)nc2n1,-0.101
12,O=c1cc(N2CCC3(CC2)OCCO3)[nH]c(=O)n1C1CCCCC1,0.629
13,O=C(Nc1ccccn1)c1ccco1,-0.643
14,Cc1cc(N(C)C)c(C#N)c(N2CCOCC2)n1,-0.00675
15,O=C(Nc1ccc(F)cc1)c1cccc2c1C(=O)N(Cc1ccccn1)C2,active: -3.84
16,CCOc1ccc(-c2nn(-c3ccccc3)cc2/C=C2\SC(=S)N(Cc3ccco3)C2=O)cc1,-0.103
17,OCCN(CC(O)Cn1ccc2ccccc21)CC(O)Cn1ccc2ccccc21 (centres undefined),0.506
18,O=C(Nc1ccc2c(c1)OCO2)N1CCN(S(=O)(=O)c2ccc(Cl)cc2)CC1,-0.24
19,CCc1cc(C(=O)COc2ccccc2F)c(O)cc1O,-0.141
20,CCCCN(CCCC)S(=O)(=O)c1ccc(NC(=O)CN2CCOCC2)cc1,0.367
21,CCOC(=O)c1cnc2c(C)cc(C)cc2c1Nc1ccc(S(=O)(=O)Nc2ncccn2)cc1,-0.378
22,CCn1c(SCC(=O)Nc2nc(C)c(C)s2)nnc1-c1ccco1,-0.149

row,Structure (SMILES),z-score
1,O=[N+]([O-])c1ccccc1NCCNS(=O)(=O)c1ccc(Cl)cc1,-0.0705
2,O=C(OCn1nnc2ccccc2c1=O)C1COc2ccccc2O1 (centres undefined),0.438
3,COc1ccc(CCNC(=O)Cc2ccc3c(c2)OCO3)cc1OC,-0.904
4,CCOc1ccc(N2CC(C(=O)Nc3cccc(C)c3C)CC2=O)cc1 (centres undefined),-0.0951
5,O=C1c2ccccc2C(=O)N1c1ccc(Cl)cn1,-0.295
6,CCOC(=O)c1ccc2c(c1)nc(COc1ccc3ccccc3c1)n2CC,0.395
7,C=CCn1c(-c2cc(Cl)ccc2OC)n[nH]c1=S,-0.302
8,C=CCNC(=S)N1CCN(CCN=CC2=C(O)CC(c3cccs3)CC2=O)CC1 (centres undefined),0.356
9,CCOC(=O)c1[nH]c2ccc(Br)cc2c1NC(=O)CCN1CCC(C)CC1,-0.616
10,CCOc1ccc(CNC(=O)C2CCCN(S(C)(=O)=O)C2)cc1OC (centres undefined),0.258
11,CC(C)CCNC(=O)C1CCN(S(=O)(=O)c2ccc3c(c2)CCC(=O)N3)CC1,-0.496
12,CC(C)(C)Cc1nnc(NS(C)(=O)=O)s1,-0.122
13,COc1ccc(NC(=O)C2CCCN2C(=O)Nc2ccccc2)cc1OC (centres undefined),0.756
14,Cc1c(-c2cccs2)[n+](=O)c2c(n1[O-])CCCCC2,0.038
15,O=C(O)CCC(=O)NNC(=O)CCCOc1ccc(Cl)cc1Cl,-0.0434
16,Cc1oc(C(C)(C)C)cc1C(=O)NCC(=O)NCC(=O)O,-0.126
17,O=C(Nc1cc(S(=O)(=O)N2CCOCC2)ccc1O)c1ccc(NS(=O)(=O)c2ccc(Cl)s2)cc1,-0.318
18,COc1ccc(CCN2C(=O)C(O)=C(C(C)=O)C2c2ccccc2OC)cc1OC (centres undefined),-0.511
19,CCOC(=O)CCCCC(=O)NC(CO)C(=O)NC (centres undefined),0.051
20,O=C(Nc1ccon1)c1ccc2c(c1)OCO2,0.163
21,Cc1nn(CC(=O)NCc2cccnc2)c(=O)c2ccccc12,-0.16
22,CCCOc1ccc(CN(CCO)CCO)cc1C(=O)OC,-0.61

row,Structure (SMILES),z-score
1,O=C(Nc1nnc(-c2ccccc2Cl)o1)c1nc2ccccc2s1,1.61
2,Cc1cc(C)nc(SC(C)C(=O)Nc2ccc(S(N)(=O)=O)cc2)n1 (centres undefined),0.874
3,O=C1NC(c2ccccc2)=C(c2ccc3ccccc3n2)C(c2ccncc2)N1 (centres undefined),-0.182
4,O=C(CSc1ncccn1)NCc1ccccc1,-0.203
5,C=CCn1c(SCC(=O)Nc2nc3ccccc3s2)nnc1-c1ccccc1O,-1.48
6,CCCNC(=O)Nc1nccs1,0.416
7,Cc1cccc(CN2CCC(C(N)=O)CC2)c1,-0.102
8,Fc1ccccc1COc1ccc(-c2nnn(Cc3ccccc3F)n2)cc1,-0.229
9,CC(OC(=O)C1CCCO1)C(=O)NC1CCCC1 (centres undefined),0.22
10,O=C(c1ccco1)N1CCN(C(c2ccccc2)c2nnnn2C2CCCC2)CC1 (centres undefined),-0.364
11,Cc1ccc(/C=C/C(=O)NCc2ccc3c(c2)OCO3)o1,-0.159
12,C=CCSc1ncccc1C(=O)NCc1ccc(C)cc1,-0.198
13,COc1ccc(NC(=O)CN2CCN(c3ccccc3Cl)CC2)cc1,-0.216
14,Cc1nnc(SCC(=O)N2CCN(Cc3ccccc3)CC2)s1,-0.196
15,CC(C)(C)c1ccc(C(=O)c2c[nH]c(C(=O)NCc3ccco3)c2)cc1,0.44
16,O=C(c1cccn2c(=O)c3cc4ccccc4cc3nc12)N1CCN(c2ccccc2)CC1,-0.128
17,Cn1c(=O)c2ncn(CC(=O)N/N=C/c3ccco3)c2n(C)c1=O,-0.105
18,Cc1ccc(C(C)n2cc(C(=O)NCc3cccnc3)nn2)cc1 (centres undefined),-0.242
19,CC(C)C(=O)Nc1ccc([N+](=O)[O-])cc1Br,-0.205
20,CCc1cc(C(=O)OC)c(NC(=O)CCC(=O)O)s1,-0.105
21,O=C(NCc1ccccn1)C(F)(F)C(F)(F)C(=O)NCc1ccccn1,-0.509
22,O=S1(=O)CCN(Cc2cccc(Cl)c2)CC1,-0.236

row,Structure (SMILES),z-score
1,CCOC(=O)c1cc(C(=O)c2cccs2)n2ccc(C(C)=O)cc12,-0.115
2,Cc1ccccc1-n1c(SCC(=O)NC(N)=O)nc2sc(-c3ccccc3)cc2c1=O,0.4
3,CCC(C)(C)n1nnnc1C(c1ccc2ncccc2c1)N1CCN(c2nc3ccccc3s2)CC1 (centres undefined),-0.286
4,OC(CN1CCOCC1)Cn1c(-c2cccc(Cl)c2)nc2ccccc21 (centres undefined),0.102
5,N#Cc1ccsc1NC(=O)COC(=O)CCCSc1nc2ccccc2s1,-0.053
6,CCc1nn(-c2cc(Oc3cccc4ccccc34)nc(-c3ccccc3)n2)c(N)c1C#N,0.03
7,Cc1ccc(C(=O)Nc2nccc(-c3cccs3)n2)cc1,-0.21
8,O=C(NNc1cccc(Cl)n1)Nc1cccc(C(F)(F)F)c1,-0.151
9,CCC(C)(C)c1nnc(NC(=O)c2ccc([N+](=O)[O-])cc2)s1,-0.246
10,Cc1cc(C)c(-c2c(O)c3cccc4c3n(c2=O)CCC4)c(C)c1,0.0112
11,CCOc1ccccc1N1CCN(C2=C(NS(=O)(=O)c3cccs3)C(=O)c3ccccc3C2=O)CC1,-0.248
12,O=c1c2ccccc2nc(SCc2ccccc2Cl)n1Cc1ccccc1,-0.107
13,Cc1ccc(S(=O)(=O)Cc2ccc(C(=O)N3CCCCCC3)o2)cc1,-0.0382
14,Cc1ccccc1N1CCN(S(=O)(=O)c2ccc3oc(=O)ccc3c2)CC1,-1.76
15,Fc1ccccc1CSc1ncnc2c1oc1ccccc12,0.342
16,CCCOc1ccc(N2C(=O)CC(N3CCC(c4nncn4CC)CC3)C2=O)cc1 (centres undefined),0.0427
17,CCOc1ccc(NCc2nnc(SCc3ccccc3Cl)n2-c2ccccc2)cc1,-0.103
18,NC(=O)CSC1=Nc2ccccc2C2=NC(CC(=O)NCc3cccs3)C(=O)N12 (centres undefined),0.844
19,CC(=O)Nc1nc(C)nc(-c2ccccc2)c1C(C)=O,0.465
20,O=C(CCc1nc2ccccc2c(=O)[nH]1)OCC(=O)c1cccc(Cl)c1,-0.231
21,CCCC1O[C@@H]2CC3C4CCC5=CC(=O)C=C[C@]5(C)C4C(OC(C)=O)C[C@]3(C)[C@]2(C(=O)COC(C)=O)O1 (some centres undefined),-0.809
